Over roughly 33,000 sequences, “E-score (-0.5 to 0.5)” has its median near -0.036; the highest 2% begin near 0.37. Some of the results follow.
target: T1, Yer064c (UniProt P40041); assay: PBM E-score (8-mer binding enrichment) (E-score (-0.5 to 0.5)); higher = stronger / more preferred TF binding; most listed sequences are background and not binding sites; settings: protein concentration: 200 nM; construct: GST-full length
T1 sequence: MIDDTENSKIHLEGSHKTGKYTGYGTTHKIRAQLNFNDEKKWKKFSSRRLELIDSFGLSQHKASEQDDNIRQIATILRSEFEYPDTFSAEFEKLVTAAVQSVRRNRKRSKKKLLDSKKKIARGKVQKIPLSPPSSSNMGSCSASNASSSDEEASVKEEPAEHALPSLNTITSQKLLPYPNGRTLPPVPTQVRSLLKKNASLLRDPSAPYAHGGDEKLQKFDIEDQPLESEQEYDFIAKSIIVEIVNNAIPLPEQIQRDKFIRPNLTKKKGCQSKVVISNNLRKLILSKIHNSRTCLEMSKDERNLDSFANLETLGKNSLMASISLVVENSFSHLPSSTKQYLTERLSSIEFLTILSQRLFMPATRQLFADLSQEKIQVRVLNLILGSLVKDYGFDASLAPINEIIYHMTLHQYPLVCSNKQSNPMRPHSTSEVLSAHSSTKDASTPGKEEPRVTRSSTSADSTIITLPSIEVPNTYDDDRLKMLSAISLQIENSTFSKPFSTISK
Method in brief: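 E-scores (a modified Wilcoxon-Mann-Whitney statistic) were assigned by the Universal PBM Analysis Suite to every ungapped eight-base word pooled with its reverse complement. The input came from universal all-10-mer Agilent arrays made double-stranded by primer extension and probed with GST-tagged yeast transcription factors at about 100-200 nM. Fluorescent anti-GST detected bound protein, and masliner normalised the scans.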

Going from ACCCCACC to CAAGATCA, the “PBM E-score” value rises from -0.0237 to 0.088.

Compared with AAATCCCT, ATAATCTG is higher in “PBM E-score” value: -0.199 for the first, 0.0759 for the second.

Going from AGGATCAA to CGACTCAG, the “PBM E-score” value rises from 0.19 to 0.45.

First: GCAAGGTA
Second: CCTATGAA
The “PBM E-score” value of the first is lower: -0.242 for the first, -0.15 for the second.

Going from GGATACAA to CAGCCCCA, the “PBM E-score” value falls from 0.0348 to -0.187.

Compared with GAGTCTCA, AGACATTA is lower in “PBM E-score” value: 0.411 for the first, 0.196 for the second.

First: TGGGGACA
Second: ATTGTGAA
The “PBM E-score” value of the first is lower: -0.041 for the first, 0.103 for the second.

First: CAAAGGCG
Second: CGGACCGA
The “PBM E-score” value of the first is lower: -0.0844 for the first, -0.0816 for the second.

First: CCTTAAAC
Second: ACCTCACA
The “PBM E-score” value of the first is higher: 0.00355 for the first, -0.118 for the second.

First: CACCGCGG
Second: ACCTCGAG
The “PBM E-score” value of the first is higher: -0.0147 for the first, -0.135 for the second.

First: CATTATTA
Second: CAACCGCC
The “PBM E-score” value of the first is higher: 0.0916 for the first, -0.179 for the second.

Going from TAGGTTAA to CGGTTCCC, the “PBM E-score” value falls from 0.0927 to -0.299.

First: GGGACAAA
Second: CTCCAGAC
The “PBM E-score” value of the first is lower: -0.134 for the first, 0.115 for the second.

Going from CTTATGTC to TCCGTTAA, the “PBM E-score” value rises from -0.107 to 0.105.

Compared with AAGCGCTT, ATCCGGTG is higher in “PBM E-score” value: 0.034 for the first, 0.0615 for the second.

Going from CATGGCCC to CCGTATAC, the “PBM E-score” value falls from -0.174 to -0.185.

First: CCGAGACA
Second: ACTATTCA
The “PBM E-score” value of the first is lower: 0.00538 for the first, 0.106 for the second.

Going from CTATAGCC to CGGTGCAC, the “PBM E-score” value falls from -0.0342 to -0.278.

Compared with CCGAAGGA, AGAGCTAC is lower in “PBM E-score” value: 0.0542 for the first, -0.272 for the second.

Compared with ATTCAGAA, CGGCACTC is lower in “PBM E-score” value: 0.139 for the first, -0.228 for the second.

First: CACGATCC
Second: GCACAAGC
The “PBM E-score” value of the first is higher: 0.138 for the first, -0.0968 for the second.

Going from AGGGGCCC to CTAATTAG, the “PBM E-score” value rises from -0.315 to 0.175.

Compared with CTGTCCGC, TGATAGCA is higher in “PBM E-score” value: -0.0966 for the first, 0.0998 for the second.

Going from AAATGATA to ATGTAAAT, the “PBM E-score” value falls from 0.104 to 0.0103.

Going from GACAACCC to GACTTTCA, the “PBM E-score” value rises from -0.174 to 0.209.

First: ATACACGG
Second: AGCGGATG
The “PBM E-score” value of the first is lower: -0.129 for the first, -0.0548 for the second.

First: GGGTTGAA
Second: ATCAGTCC
The “PBM E-score” value of the first is lower: -0.0719 for the first, 0.0464 for the second.

First: CGCATACG
Second: CCTTAAGG
The “PBM E-score” value of the first is lower: -0.206 for the first, 0.107 for the second.

Going from ACCTGCGT to CGCTAGGA, the “PBM E-score” value rises from -0.162 to 0.177.

Compared with GATGGGGA, AACCACAT is higher in “PBM E-score” value: -0.0916 for the first, 0.164 for the second.

Compared with GAAGTAGC, GGCCTTTA is lower in “PBM E-score” value: -0.168 for the first, -0.32 for the second.

First: GTGGCCAA
Second: CAAAGCCG
The “PBM E-score” value of the first is lower: -0.219 for the first, -0.176 for the second.

Going from GGGAATCA to ACAAAAGT, the “PBM E-score” value falls from 0.418 to 0.131.

Compared with TAAAGGCA, AAGGGACG is lower in “PBM E-score” value: -0.11 for the first, -0.332 for the second.

Compared with CGAGTAGA, ACTTGATG is higher in “PBM E-score” value: 0.0255 for the first, 0.0408 for the second.

Going from ACAAAATC to GCACATAA, the “PBM E-score” value falls from 0.044 to -0.0575.

Compared with CAGCGCCG, CCCCTTCG is lower in “PBM E-score” value: -0.0963 for the first, -0.214 for the second.

First: CGGAGAAA
Second: CAGCAGAC
The “PBM E-score” value of the first is lower: -0.0432 for the first, -0.0101 for the second.

Going from CCAGGTAC to AACCTGCC, the “PBM E-score” value falls from -0.061 to -0.127.

Going from ACGTATCA to CCGTGTCC, the “PBM E-score” value falls from -0.0547 to -0.159.

Going from AACTAATA to CCAGGTAA, the “PBM E-score” value falls from 0.176 to -0.119.

Compared with TAGAGTAA, GTTGGCAA is lower in “PBM E-score” value: 0.0416 for the first, -0.14 for the second.

Compared with AGATCAAG, AAGGTTCG is lower in “PBM E-score” value: 0.158 for the first, -0.237 for the second.
